# From the supplement of paper PMC8728848
# The list shows a part of the results.
# How the values were obtained:
# Experiment in all cases: glycan array binding signal (z-score within array); higher = stronger binding
# Conditions in all cases: glycan notation: IUPAC condensed, linker removed
# [1] = target: Neu5Ac(a2-3)Gal(b1-4)GlcNAc(b1-3)[Neu5Ac(a2-3)Gal(b1-4)GlcNAc(b1-6)]GalNAc
# Method in brief: (§1)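 The Consortium for Functional Glycomics database supplied 3228 glycan arrays, of which those lacking an available protein sequence were dropped. The binding signal, a within-array Z-score, was averaged across arrays of the same protein sequence and across linkers. Negative scores can be read as non-binding.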
# [2] = target: Neu5Ac(a2-3)Gal(b1-4)GlcNAc(b1-6)GalNAc
# Method in brief: as §1
# [3] = target: Neu5Ac(a2-3)Gal(b1-4)GlcNAc(b1-6)[Gal(b1-3)]GalNAc
# Method in brief: as §1
# [4] = target: Neu5Ac(a2-3)Gal(b1-4)GlcNAc(b1-6)[Neu5Ac(a2-3)Gal(b1-3)]GalNAc
# Method in brief: as §1
# [5] = target: Neu5Ac(a2-3)Gal(b1-4)GlcNAc6S
# Method in brief: as §1
# [6] = target: Neu5Ac(a2-3)Gal(b1-4)[Fuc(a1-3)]GlcNAc
# Method in brief: as §1
# [7] = target: Neu5Ac(a2-3)Gal(b1-4)[Fuc(a1-3)]GlcNAc(b1-2)Man
# Method in brief: as §1
# [8] = target: Neu5Ac(a2-3)Gal(b1-4)[Fuc(a1-3)]GlcNAc(b1-3)Gal
# Method in brief: as §1
# [9] = target: Neu5Ac(a2-3)Gal(b1-4)[Fuc(a1-3)]GlcNAc(b1-3)Gal(b1-4)GlcNAc
# Method in brief: as §1
# [10] = target: Neu5Ac(a2-3)Gal(b1-4)[Fuc(a1-3)]GlcNAc(b1-3)Gal(b1-4)[Fuc(a1-3)]GlcNAc(b1-3)Gal(b1-4)[Fuc(a1-3)]GlcNAc
# Method in brief: as §1
# [11] = target: Neu5Ac(a2-3)Gal(b1-4)[Fuc(a1-3)]GlcNAc(b1-3)GalNAc
# Method in brief: as §1
# [12] = target: Neu5Ac(a2-3)Gal(b1-4)[Fuc(a1-3)]GlcNAc(b1-6)[Gal(b1-3)]GalNAc
# Method in brief: as §1
# [13] = target: Neu5Ac(a2-3)Gal(b1-4)[Fuc(a1-3)]GlcNAc(b1-6)[Neu5Ac(a2-3)Gal(b1-3)]GalNAc
# Method in brief: as §1
# [14] = target: Neu5Ac(a2-3)Gal(b1-4)[Fuc(a1-3)]GlcNAc6S
# Method in brief: as §1
# [15] = target: Neu5Ac(a2-3)Gal6S(b1-4)GlcNAc
# Method in brief: as §1
# [16] = target: Neu5Ac(a2-3)Gal6S(b1-4)[Fuc(a1-3)]GlcNAc
# Method in brief: as §1
# Neu5Ac(a2-3)GalNAc = target: Neu5Ac(a2-3)GalNAc
# Method in brief: as §1
# [17] = target: Neu5Ac(a2-3)GalNAc(b1-4)GlcNAc
# Method in brief: as §1
# [18] = target: Neu5Ac(a2-3)[GalNAc(b1-4)]Gal(b1-4)Glc
# Method in brief: as §1
# [19] = target: Neu5Ac(a2-3)[GalNAc(b1-4)]Gal(b1-4)GlcNAc
# Method in brief: as §1
# [20] = target: Neu5Ac(a2-3)[GalNAc(b1-4)]Gal(b1-4)GlcNAc(b1-3)GalNAc
# Method in brief: as §1
# [21] = target: Neu5Ac(a2-3)[Neu5Ac(a2-6)]GalNAc
# Method in brief: as §1
# Neu5Ac(a2-6)Gal = target: Neu5Ac(a2-6)Gal
# Method in brief: as §1
# [22] = target: Neu5Ac(a2-6)Gal(b1-3)GlcNAc(b1-3)[Gal(b1-4)GlcNAc(b1-6)]Gal(b1-4)Glc
# Method in brief: as §1
# Neu5Ac(a2-6)Gal(b1-4)Glc = target: Neu5Ac(a2-6)Gal(b1-4)Glc
# Method in brief: as §1
# [23] = target: Neu5Ac(a2-6)Gal(b1-4)GlcNAc
# Method in brief: as §1
# [24] = target: Neu5Ac(a2-6)Gal(b1-4)GlcNAc(b1-2)Man
# Method in brief: as §1
# [25] = target: Neu5Ac(a2-6)Gal(b1-4)GlcNAc(b1-2)Man(a1-3)Man(b1-4)GlcNAc(b1-4)GlcNAc
# Method in brief: as §1
# [26] = target: Neu5Ac(a2-6)Gal(b1-4)GlcNAc(b1-2)Man(a1-3)[Gal(b1-4)GlcNAc(b1-2)Man(a1-6)]Man(b1-4)GlcNAc(b1-4)GlcNAc
# Method in brief: as §1
# [27] = target: Neu5Ac(a2-6)Gal(b1-4)GlcNAc(b1-2)Man(a1-3)[GlcNAc(b1-2)Man(a1-6)]Man(b1-4)GlcNAc(b1-4)GlcNAc
# Method in brief: as §1
# [28] = target: Neu5Ac(a2-6)Gal(b1-4)GlcNAc(b1-2)Man(a1-3)[GlcNAc(b1-4)][Neu5Ac(a2-6)Gal(b1-4)GlcNAc(b1-2)Man(a1-6)]Man(b1-4)GlcNAc(b1-4)GlcNAc
# Method in brief: as §1
# [29] = target: Neu5Ac(a2-6)Gal(b1-4)GlcNAc(b1-2)Man(a1-3)[Man(a1-6)]Man(b1-4)GlcNAc(b1-4)GlcNAc
# Method in brief: as §1
# [30] = target: Neu5Ac(a2-6)Gal(b1-4)GlcNAc(b1-2)Man(a1-3)[Neu5Ac(a2-3)Gal(b1-4)GlcNAc(b1-2)Man(a1-6)]Man(b1-4)GlcNAc(b1-4)GlcNAc
# Method in brief: as §1
# [31] = target: Neu5Ac(a2-6)Gal(b1-4)GlcNAc(b1-2)Man(a1-3)[Neu5Ac(a2-6)Gal(b1-4)GlcNAc(b1-2)Man(a1-6)]Man(b1-4)GlcNAc(b1-4)GlcNAc
# Method in brief: as §1
# [32] = target: Neu5Ac(a2-6)Gal(b1-4)GlcNAc(b1-2)Man(a1-3)[Neu5Ac(a2-6)Gal(b1-4)GlcNAc(b1-2)Man(a1-6)]Man(b1-4)GlcNAc(b1-4)[Fuc(a1-6)]GlcNAc
# Method in brief: as §1
# [33] = target: Neu5Ac(a2-6)Gal(b1-4)GlcNAc(b1-2)Man(a1-6)Man(b1-4)GlcNAc(b1-4)GlcNAc
# Method in brief: as §1
# [34] = target: Neu5Ac(a2-6)Gal(b1-4)GlcNAc(b1-2)Man(a1-6)[Gal(b1-4)GlcNAc(b1-2)Man(a1-3)]Man(b1-4)GlcNAc(b1-4)GlcNAc
# Method in brief: as §1
# [35] = target: Neu5Ac(a2-6)Gal(b1-4)GlcNAc(b1-2)Man(a1-6)[GlcNAc(b1-2)Man(a1-3)]Man(b1-4)GlcNAc(b1-4)GlcNAc
# Method in brief: as §1
# [36] = target: Neu5Ac(a2-6)Gal(b1-4)GlcNAc(b1-2)Man(a1-6)[Man(a1-3)]Man(b1-4)GlcNAc(b1-4)GlcNAc
# Method in brief: as §1
# [37] = target: Neu5Ac(a2-6)Gal(b1-4)GlcNAc(b1-2)[Neu5Ac(a2-6)Gal(b1-4)GlcNAc(b1-4)]Man(a1-3)[GlcNAc(b1-4)][Neu5Ac(a2-6)Gal(b1-4)GlcNAc(b1-2)[Neu5Ac(a2-6)Gal(b1-4)GlcNAc(b1-6)]Man(a1-6)]Man(b1-4)GlcNAc(b1-4)GlcNAc
# Method in brief: as §1
# [38] = target: Neu5Ac(a2-6)Gal(b1-4)GlcNAc(b1-2)[Neu5Ac(a2-6)Gal(b1-4)GlcNAc(b1-4)]Man(a1-3)[GlcNAc(b1-4)][Neu5Ac(a2-6)Gal(b1-4)GlcNAc(b1-4)Man(a1-6)]Man(b1-4)GlcNAc(b1-4)GlcNAc
# Method in brief: as §1
# [39] = target: Neu5Ac(a2-6)Gal(b1-4)GlcNAc(b1-2)[Neu5Ac(a2-6)Gal(b1-4)GlcNAc(b1-6)]Man(a1-6)[Neu5Ac(a2-6)Gal(b1-4)GlcNAc(b1-2)Man(a1-3)][GlcNAc(b1-4)]Man(b1-4)GlcNAc(b1-4)GlcNAc
# Method in brief: as §1
# [40] = target: Neu5Ac(a2-6)Gal(b1-4)GlcNAc(b1-3)Gal(b1-3)GlcNAc
# Method in brief: as §1
# [41] = target: Neu5Ac(a2-6)Gal(b1-4)GlcNAc(b1-3)Gal(b1-4)GlcNAc
# Method in brief: as §1
# [42] = target: Neu5Ac(a2-6)Gal(b1-4)GlcNAc(b1-3)Gal(b1-4)GlcNAc(b1-2)Man(a1-3)[Neu5Ac(a2-6)Gal(b1-4)GlcNAc(b1-3)Gal(b1-4)GlcNAc(b1-2)Man(a1-6)]GalNAc
# Method in brief: as §1
# [43] = target: Neu5Ac(a2-6)Gal(b1-4)GlcNAc(b1-3)Gal(b1-4)GlcNAc(b1-3)Gal(b1-4)GlcNAc
# Method in brief: as §1
binder,measurement,setting,value
DC-ASGPR Long (Homo sapiens) (protein) MTRTYENFQYLENKVKVQGFKNGPLPLQSLLQRLRSGPCHLLLSLGLGLLLLVIICVVGFQNSKFQRDLVTLRTDFSNFTSNTVAEIQALTSQGSSLEETIASLKAEVEGFKQERQAGVSELQEHTTQKAHLGHCPHCPSVCVPVHSEMLLRVQQLVQDLKKLTCQVATLNNNASTEGTCCPVNWVEHQDSCYWFSHSGMSWAEAEKYCQLKNAHLVVINSREEQNFVQKYLGSAYTWMGLSDPEGAWKWVDGTDYATGFQNWKPGQPDDWQGHGLGGGEDCAHFHPDGGWNDDVCQRPYHWVCEAGLGQTSQESH,glycan array binding signal (z-score),[1],-0.552
same,glycan array binding signal (z-score),[2],2.99
same,glycan array binding signal (z-score),[3],-0.26
same,glycan array binding signal (z-score),[4],-0.38
same,glycan array binding signal (z-score),[5],-0.333
same,glycan array binding signal (z-score),[6],-0.157
same,glycan array binding signal (z-score),[7],-0.179
same,glycan array binding signal (z-score),[8],-0.126
same,glycan array binding signal (z-score),[9],-0.277
same,glycan array binding signal (z-score),[10],-0.298
same,glycan array binding signal (z-score),[11],0.105
same,glycan array binding signal (z-score),[12],-0.34
same,glycan array binding signal (z-score),[13],-0.501
same,glycan array binding signal (z-score),[14],-0.312
same,glycan array binding signal (z-score),[15],-0.428
same,glycan array binding signal (z-score),[16],1.07
same,glycan array binding signal (z-score),Neu5Ac(a2-3)GalNAc,-0.291
same,glycan array binding signal (z-score),[17],-0.133
same,glycan array binding signal (z-score),[18],1.03
same,glycan array binding signal (z-score),[19],0.513
same,glycan array binding signal (z-score),[20],-0.713
same,glycan array binding signal (z-score),[21],-0.293
same,glycan array binding signal (z-score),Neu5Ac(a2-6)Gal,-0.227
same,glycan array binding signal (z-score),[22],-0.45
same,glycan array binding signal (z-score),Neu5Ac(a2-6)Gal(b1-4)Glc,-0.417
same,glycan array binding signal (z-score),[23],-0.381
same,glycan array binding signal (z-score),[24],0.058
same,glycan array binding signal (z-score),[25],-0.306
same,glycan array binding signal (z-score),[26],-0.424
same,glycan array binding signal (z-score),[27],-0.206
same,glycan array binding signal (z-score),[28],-0.495
same,glycan array binding signal (z-score),[29],-0.249
same,glycan array binding signal (z-score),[30],-0.016
same,glycan array binding signal (z-score),[31],-0.115
same,glycan array binding signal (z-score),[32],-0.343
same,glycan array binding signal (z-score),[33],-0.263
same,glycan array binding signal (z-score),[34],-0.434
same,glycan array binding signal (z-score),[35],-0.219
same,glycan array binding signal (z-score),[36],-0.516
same,glycan array binding signal (z-score),[37],-0.513
same,glycan array binding signal (z-score),[38],-0.285
same,glycan array binding signal (z-score),[39],-0.533
same,glycan array binding signal (z-score),[40],-0.236
same,glycan array binding signal (z-score),[41],-0.735
same,glycan array binding signal (z-score),[42],0.57
same,glycan array binding signal (z-score),[43],-0.28
